Experimental data as given in patent US7816326B2, “Sulfur compounds as inhibitors of hepatitis C virus NS3 serine protease” (Schering Corporation, priority 2004, dated 2010).

Biological target: Recombinant heterodimeric HCV NS3/NS4A protease (strain 1a) (Hepatitis C virus genotype 1a, UniProt P27958)
Assay: Spectrophotometric assay for HCV protease inhibitory activity
Assay type: biochemical
Excerpt: The present invention relates to novel HCV protease inhibitors. This utility can be manifested in their ability to inhibit the HCV NS2/NS4a serine protease.
Assay for HCV Protease Inhibitory Activity:
Spectrophotometric Assay: Spectrophotometric assay for the HCV serine protease can be performed on the inventive compounds by following the procedure described by R. Zhang et al, Analytical Biochemistry, 270 (1999) 268-275, the disclosure of which is incorporated herein by reference. The assay based on the proteolysis of chromogenic ester substrates is suitable for the continuous monitoring of HCV NS3 protease activity. The substrates are derived from the P side of the NS5A-NS5B junction sequence (Ac-DTEDVVX(Nva), where X=A or P) whose C-terminal carboxyl groups are esterified with one of four different chromophoric alcohols (3- or 4-nitrophenol, 7-hydroxy-4-methyl-coumarin, or 4-phenylazophenol). Illustrated below are the synthesis, characterization and application of these novel spectrophotometric ester substrates to high throughput screening and detailed kinetic evaluation of HCV NS3 protease inhibitors. Materials and Methods: Materials: Chemical reagents for assay related buffers are obtained from Sigma Chemical Company (St. Louis, Mo.). Reagents for peptide synthesis were from Aldrich Chemicals, Novabiochem (San Diego, Calif.), Applied Biosystems (Foster City, Calif.) and Perseptive Biosystems (Framingham, Mass.). Peptides are synthesized manually or on an automated ABI model 431A synthesizer (from Applied Biosystems). UV/VIS Spectrometer model LAMBDA 12 was from Perkin Elmer (Norwalk, Conn.) and 96-well UV plates were obtained from Corning (Corning, N.Y.). The prewarming block can be from USA Scientific (Ocala, Fla.) and the 96-well plate vortexer is from Labline Instruments (Melrose Park, Ill.). A Spectramax Plus microtiter plate reader with monochrometer is obtained from Molecular Devices (Sunnyvale, Calif.). […] Protein concentrations are determined by the Biorad dye method using recombinant HCV protease standards previously quantified by amino acid analysis. Prior to assay initiation, the enzyme storage buffer (50 mM sodium phosphate pH 8.0, 300 mM NaCl, 10% glycerol, 0.05% lauryl maltoside and 10 mM DTT) is exchanged for the assay buffer (25 mM MOPS pH 6.5, 300 mM NaCl, 10% glycerol, 0.05% lauryl maltoside, 5 μM EDTA and 5 μM DTT) utilizing a Biorad Bio-Spin P-6 prepacked column. Substrate Synthesis and Purification: The synthesis of the substrates is done as reported by R. Zhang et al, (ibid.) and is initiated by anchoring Fmoc-Nva-OH to 2-chlorotrityl chloride resin using a standard protocol (K. Barlos et al, Int. J. Pept. Protein Res., 37 (1991), 513-520). The peptides are subsequently assembled, using Fmoc chemistry, either manually or on an automatic ABI model 431 peptide synthesizer. […] The combined filtrate and DCM wash is evaporated azeotropically (or repeatedly extracted by aqueous Na2CO3 solution) to remove the acid used in cleavage. The DCM phase is dried over Na2SO4 and evaporated.
The ester substrates are assembled using standard acid-alcohol coupling procedures (K. Holmber et al, Acta Chem. Scand., B33 (1979) 410-412). Peptide fragments are dissolved in anhydrous pyridine (30-60 mg/ml) to which 10 molar equivalents of chromophore and a catalytic amount (0.1 eq.) of para-toluenesulfonic acid (pTSA) were added. Dicyclohexylcarbodiimide (DCC, 3 eq.) is added to initiate the coupling reactions. Product formation is monitored by HPLC and can be found to be complete following 12-72 hour reaction at room temperature. Pyridine solvent is evaporated under vacuum and further removed by azeotropic evaporation with toluene.

[1] = HCV serine protease inhibitory activity ranges, read-out: Ki* Range
[2] = HCV NS3/NS4A protease, chromogenic ester substrate, 30° C., pH 6.5, read-out: Ki*

Structure (SMILES)	Ki [1] [nM]	Ki [2] [nM]
CON(C)S(=O)(=O)CC1(NC(=O)N[C@H](C(=O)N2C[C@H]3[C@@H]([C@H]2C(=O)N[C@@H](CCC2CC2)C(=O)C(=O)NC2CC2)C3(C)C)C2(C)CCCCC2)CCCCC1 [compound 1232]	< 75	–
CCC[C@H](NC(=O)[C@@H]1[C@@H]2[C@H](CN1C(=O)[C@@H](NC(=O)NC1(CS(=O)(=O)N(C)OC)CCCCC1)C1(C)CCCCC1)C2(C)C)C(=O)C(=O)NC1CC1 [compound 1233]	< 75	–
C#CCC[C@H](NC(=O)[C@@H]1[C@@H]2[C@H](CN1C(=O)[C@@H](NC(=O)NC1(CS(=O)(=O)N(C)C)CCCCC1)C(C)(C)C)C2(C)C)C(=O)C(=O)NC1CC1 [compound 1234]	< 75	–
CN(C)S(=O)(=O)CC1(NC(=O)N[C@H](C(=O)N2C[C@H]3[C@@H]([C@H]2C(=O)N[C@@H](CCC2CC2)C(=O)C(=O)NC2CC2)C3(C)C)C2(C)CCCCC2)CCCCC1 [compound 1235]	< 75	–
CCCC[C@H](NC(=O)[C@@H]1[C@@H]2[C@H](CN1C(=O)[C@@H](NC(=O)NC1(CS(=O)(=O)N(C)C)CCCCC1)C1(C)CCCCC1)C2(C)C)C(=O)C(=O)NC1CC1 [compound 1236]	< 75	–
CN(C)S(=O)(=O)CC1(NC(=O)N[C@H](C(=O)N2C[C@H]3[C@@H]([C@H]2C(=O)N[C@@H](CC2CC2)C(=O)C(=O)NC2CC2)C3(C)C)C2(C)CCCCC2)CCCCC1 [compound 1237]	< 75	–
CCC[C@H](NC(=O)[C@@H]1[C@@H]2[C@H](CN1C(=O)[C@@H](NC(=O)NC1(CS(=O)(=O)N(C)C)CCCCC1)C1(C)CCCCC1)C2(C)C)C(=O)C(=O)NC1CC1 [compound 1238]	< 75	–
C#CCC[C@H](NC(=O)[C@@H]1[C@@H]2[C@H](CN1C(=O)[C@@H](NC(=O)NC1(CS(=O)(=O)N(C)C)CCCCC1)C1(C)CCCCC1)C2(C)C)C(=O)C(=O)NC1CC1 [compound 1239]	< 75	–
CN(C)S(=O)(=O)CC1(NC(=O)N[C@H](C(=O)N2C[C@H]3[C@@H]([C@H]2C(=O)N[C@@H](CCC2CC2)C(=O)C(=O)NC2CC2)C3(C)C)C2CCCCC2)CCCCC1 [compound 1240]	< 75	–
CCCC[C@H](NC(=O)[C@@H]1[C@@H]2[C@H](CN1C(=O)[C@@H](NC(=O)NC1(CS(=O)(=O)N(C)C)CCCCC1)C1CCCCC1)C2(C)C)C(=O)C(=O)NC1CC1 [compound 1241]	< 75	–
CN(C)S(=O)(=O)CC1(NC(=O)N[C@H](C(=O)N2C[C@H]3[C@@H]([C@H]2C(=O)N[C@@H](CC2CC2)C(=O)C(=O)NC2CC2)C3(C)C)C2CCCCC2)CCCCC1 [compound 1242]	< 75	–
CCC[C@H](NC(=O)[C@@H]1[C@@H]2[C@H](CN1C(=O)[C@@H](NC(=O)NC1(CS(=O)(=O)N(C)C)CCCCC1)C1CCCCC1)C2(C)C)C(=O)C(=O)NC1CC1 [compound 1243]	< 75	–
C#CCC[C@H](NC(=O)[C@@H]1[C@@H]2[C@H](CN1C(=O)[C@@H](NC(=O)NC1(CS(=O)(=O)N(C)C)CCCCC1)C1CCCCC1)C2(C)C)C(=O)C(=O)NC1CC1 [compound 1244]	< 75	–
CCCC[C@H](NC(=O)[C@@H]1[C@@H]2[C@H](CN1C(=O)[C@@H](NC(=O)NC1(CS(=O)(=O)NC)CCCCC1)C(C)(C)C)C2(C)C)C(=O)C(=O)NC1CC1 [compound 1245]	< 75	–
CNS(=O)(=O)CC1(NC(=O)N[C@H](C(=O)N2C[C@H]3[C@@H]([C@H]2C(=O)N[C@@H](CCC2CC2)C(=O)C(=O)NC2CC2)C3(C)C)C(C)(C)C)CCCCC1 [compound 1246]	< 75	–
CCC[C@H](NC(=O)[C@@H]1[C@@H]2[C@H](CN1C(=O)[C@@H](NC(=O)NC1(CS(=O)(=O)NC)CCCCC1)C(C)(C)C)C2(C)C)C(=O)C(=O)NC1CC1 [compound 1247]	< 75	–
CCCC[C@H](NC(=O)[C@@H]1[C@@H]2[C@H](CN1C(=O)[C@@H](NC(=O)NC1(CS(=O)(=O)N(C)C(C)C)CCCCC1)C(C)(C)C)C2(C)C)C(=O)C(=O)NC1CC1 [compound 1248]	< 75	–
CC(C)N(C)S(=O)(=O)CC1(NC(=O)N[C@H](C(=O)N2C[C@H]3[C@@H]([C@H]2C(=O)N[C@@H](CCC2CC2)C(=O)C(=O)NC2CC2)C3(C)C)C(C)(C)C)CCCCC1 [compound 1249]	< 75	–
CCC[C@H](NC(=O)[C@@H]1[C@@H]2[C@H](CN1C(=O)[C@@H](NC(=O)NC1(CS(=O)(=O)N(C)C(C)C)CCCCC1)C(C)(C)C)C2(C)C)C(=O)C(=O)NC1CC1 [compound 1250]	< 75	–
CN(C)S(=O)(=O)CC1(NC(=O)N[C@H](C(=O)N2C[C@H]3[C@@H]([C@H]2C(=O)N[C@@H](CC2CC2)C(=O)C(=O)NC2CC2)C3(C)C)C(C)(C)C)CCCCC1 [compound 1251]	< 75	–
CCC[C@H](NC(=O)[C@@H]1[C@@H]2[C@H](CN1C(=O)[C@@H](NC(=O)NC1(CS(=O)(=O)N(C)C)CCCCC1)C(C)(C)C)C2(C)C)C(=O)C(=O)NC1CC1 [compound 1252]	< 75	5
CCCC[C@H](NC(=O)[C@@H]1[C@@H]2[C@H](CN1C(=O)[C@@H](NC(=O)NC1(CS(=O)(=O)N(C)C(C)C)CCCCC1)C1(C)CCCCC1)C2(C)C)C(=O)C(=O)NC1CC1 [compound 1253]	< 75	–
CC(C)N(C)S(=O)(=O)CC1(NC(=O)N[C@H](C(=O)N2C[C@H]3[C@@H]([C@H]2C(=O)N[C@@H](CCC2CC2)C(=O)C(=O)NC2CC2)C3(C)C)C2(C)CCCCC2)CCCCC1 [compound 1254]	< 75	–
CCC[C@H](NC(=O)[C@@H]1[C@@H]2[C@H](CN1C(=O)[C@@H](NC(=O)NC1(CS(=O)(=O)N(C)C(C)C)CCCCC1)C1(C)CCCCC1)C2(C)C)C(=O)C(=O)NC1CC1 [compound 1255]	< 75	–
CCCC[C@H](NC(=O)[C@@H]1[C@@H]2[C@H](CN1C(=O)[C@@H](NC(=O)NC1(CS(=O)(=O)N(CC)CC)CCCCC1)C(C)(C)C)C2(C)C)C(=O)C(=O)NC1CC1 [compound 1256]	< 75	–
CCN(CC)S(=O)(=O)CC1(NC(=O)N[C@H](C(=O)N2C[C@H]3[C@@H]([C@H]2C(=O)N[C@@H](CCC2CC2)C(=O)C(=O)NC2CC2)C3(C)C)C(C)(C)C)CCCCC1 [compound 1257]	< 75	–
CCC[C@H](NC(=O)[C@@H]1[C@@H]2[C@H](CN1C(=O)[C@@H](NC(=O)NC1(CS(=O)(=O)N(CC)CC)CCCCC1)C(C)(C)C)C2(C)C)C(=O)C(=O)NC1CC1 [compound 1258]	< 75	8
CCN(CC)S(=O)(=O)CC1(NC(=O)N[C@H](C(=O)N2C[C@H]3[C@@H]([C@H]2C(=O)N[C@@H](CC2CC2)C(=O)C(=O)NC2CC2)C3(C)C)C(C)(C)C)CCCCC1 [compound 1259]	< 75	–
CCCC[C@H](NC(=O)[C@@H]1[C@@H]2[C@H](CN1C(=O)[C@@H](NC(=O)NC1(CS(=O)(=O)N(C)Cc3ccccc3)CCCCC1)C(C)(C)C)C2(C)C)C(=O)C(=O)NC1CC1 [compound 1260]	< 75	–
CCCC[C@H](NC(=O)[C@@H]1[C@@H]2[C@H](CN1C(=O)[C@@H](NC(=O)NC1(CS(=O)(=O)N(C)C3CC3)CCCCC1)C(C)(C)C)C2(C)C)C(=O)C(=O)NC1CC1 [compound 1261, 3-[2-(3-{1-[(Cyclopropyl-methyl-sulfamoyl)-methyl]-cyclohexyl}-ureido)-3,3-dimethyl-butyryl]-6,6-dimethyl-3-aza-bicyclo[3.1.0]hexane-2-carboxylic acid (1-cyclopropylaminooxalyl-pentyl)-amide]	< 75	11

Like-named read-outs stand apart in the source and are kept apart here.
